The record followed here is patent US20010021697A1, “METHODS AND COMPOSITIONS FOR THE TREATMENT OF MAMMALIAN INFECTIONS EMPLOYING MEDICAMENTS COMPRISING HYMENOPTERA VENOM, PROTEINAGEOUS OR POLYPEPTIDE COMPONENTS THEREOF, OR ANALOGUES OF SUCH PROTEINACEOUS OR POLYPEPTIDE COMPONENTS” (priority 1987, published 2001).

Values joined by “and” are separate entries in the source; they are usually repeats but may differ in a detail not shown here. Identical values can stand only once. Like-named read-outs stand apart in the source and are kept apart here.

Test [1] relates to E. coli strain #G1108E septicemia. Put plainly: Single treatment model of septicemia (bacteria in blood). Type of test: in vivo, mice.
The test system is the same in test [2]. In kind it is in vivo, mice. The following applies: bacteria per milliliter blood, repeated treatments.

For “Melittin (1-20)-Lys-Arg-Lys-Arg-Gln-Gln-NH2.”, the “significance of the treatment mean (Tukey's multiple mean comparison)” value in test [1] (bacteria per milliliter of blood, single treatment) is “lacked statistical significance”; in test [2] it was “lacked a significant difference”. Also, in test [1] (single treatment 30 min after infection, subcutaneous, melittin 50 ng, polymyxin B 2 ug, blood 21 hours after inoculation, individual mice, listed as melittlin), the “Bacteria/ml Blood” value is 3.52 Log1Ø Bacteria/ml Blood and 2.34 Log1Ø Bacteria/ml Blood and 1.61 Log1Ø Bacteria/ml Blood.

For the substance Polymyxin B, the “significance of the treatment mean (Tukey's multiple mean comparison)” value in test [2] is on record as “significant decrease”.
